# Source: the supplement of paper PMC10126150
# Values marked as one replicate rest on one cluster of the flow cell; about a third of the high ones do not repeat.
# Tested on: ATP
# Test: switch fluorescence ratio, 500 uM ATP over buffer (Cy3 cluster intensity, sum of 5 cycles each) (fold (ratio)); higher = stronger signal-on switching upon ATP binding; sequences stand for … in TCGTCGGCAGCGTCAGATGTGTATAAGAGACAGTTTTTTTTTTTTTTTTTTTTTTTTT…TC
# Settings: aptamer strand: ATP DNA aptamer (quencher-CACCTGGGGGAGTATTGCGGAGGAAGG + anchor), 100 nM annealed; ATP concentration: 500 uM; one replicate
# Summary of the method: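 The fluorescence ratio divides summed target-cycle Cy3 intensity by summed buffer-cycle Cy3 intensity for each cluster and is averaged per switch-domain sequence. Cy3-labelled switching-strand clusters on a modified Illumina MiSeq flow-cell were annealed to 100 nM quencher-labelled ATP aptamer, then imaged in selection buffer and again after 15 min with 500 uM ATP at 22 °C. Five such cycles were run, with NaOH stripping and re-annealing between them, and clusters outside 100-1000 RFU were excluded.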
# 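Further: ATP exposure 15 min at 22 °C before imaging.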
row,Sequence,switch fluorescence ratio
1,CGCCTGATTT,1
2,CGCCTGGGGA,1.03
3,CGCCTTGGGA,1.01
4,CGCCTTTCG,1
5,CGCCTTTGTA,1.02
6,CGCCTTTTCC,1.15
7,CGCGAAAATA,1.01
8,CGCGAAGTAT,1
9,CGCGACCAAT,1.37
10,CGCGACCTGC,1.11
11,CGCGAGCGCC,1.05
12,CGCGAGTTCG,1.02
13,CGCGAGTTGT,1.06
14,CGCGATACCG,1.72
15,CGCGATAGAA,1.01
16,CGCGCACATT,1.16
17,CGCGCAGAGT,0.998
18,CGCGCCCTGC,1.08
19,CGCGCCTGGA,1.03
20,CGCGGACATA,1.06
21,CGCGGCATGG,1.16
22,CGCGGCCAGT,0.969
23,CGCGGCGGCA,1.01
24,CGCGGGACGT,1
25,CGCGGGTCCG,0.983
26,CGCGGGTCGG,0.984

row,Sequence,switch fluorescence ratio
1,CGCGGTAAAT,1.3
2,CGCGGTAACT,1.36
3,CGCGTAATTA,1.03
4,CGCGTAGAGT,1.06
5,CGCGTAGCGA,1.01
6,CGCGTATGCG,1.02
7,CGCGTCCTAG,1.02
8,CGCGTGGTTC,1.03
9,CGCGTTTGGA,0.997
10,CGCGTTTTGT,0.991
11,CGCTACGAGG,1.15
12,CGCTAGATA,1.05
13,CGCTAGGACT,1.14
14,CGCTAGTGCT,1.14
15,CGCTATACAG,1.49
16,CGCTATAT,1.57
17,CGCTATCGAA,1.02
18,CGCTCAGGA,0.965
19,CGCTCGGGCG,1.02
20,CGCTCTGATT,0.975
21,CGCTCTGGGA,1.04
22,CGCTGAAATG,1.02
23,CGCTGACTGT,1.04
24,CGCTGAGCGT,0.964
25,CGCTGCTGAA,1.05
26,CGCTGGTCTG,0.972

row,Sequence,switch fluorescence ratio
1,CGCTGGTTAT,1.02
2,CGCTGTATGA,0.988
3,CGCTTAACGG,1.01
4,CGCTTATAGT,1.15
5,CGCTTCCGGC,1.03
6,CGCTTGATTT,1.06
7,CGCTTGGG,1
8,CGCTTGTTGG,0.985
9,CGCTTGTTTG,0.95
10,CGCTTTCAGT,0.998
11,CGCTTTGT,0.988
12,CGCTTTTCGG,0.981
13,CGGAAAAAGA,1.03
14,CGGAACTTGA,1.05
15,CGGAAGATGG,0.957
16,CGGAAGGATT,0.996
17,CGGAAGGCAC,1.08
18,CGGAATGCTT,1.14
19,CGGAATTCAT,0.96
20,CGGACAGCGT,0.982
21,CGGACAGTGT,0.998
22,CGGACAGTTA,1.1
23,CGGACCTCAC,1.45
24,CGGACGGTAC,3.69
25,CGGACTATGC,1.29
26,CGGACTTTTA,0.982

row,Sequence,switch fluorescence ratio
1,CGGAGATATG,0.995
2,CGGAGATCAT,1.03
3,CGGAGCCGGG,0.959
4,CGGAGGCGTG,0.937
5,CGGAGGGTCG,1.07
6,CGGAGGTCAT,0.967
7,CGGAGTCGAG,0.983
8,CGGAGTTGTA,0.973
9,CGGAGTTTGA,1.02
10,CGGATATAAT,0.948
11,CGGATCACGC,0.952
12,CGGATCATTC,0.986
13,CGGATCGCAC,3.84
14,CGGATGTTCC,0.985
15,CGGATTACTT,1.01
16,CGGATTCATG,1.03
17,CGGATTGGAA,1.07
18,CGGATTGTAC,1.13
19,CGGATTGTGA,0.999
20,CGGCACGAGG,1
21,CGGCACTAGG,1.04
22,CGGCCAGAAG,0.963
23,CGGCCAGAGC,0.981
24,CGGCCATGGG,0.96
25,CGGCCGATGC,1.05
26,CGGCCGGGAG,1.02

row,Sequence,switch fluorescence ratio
1,CGGCCTCCCA,1.02
2,CGGCCTCGGG,0.978
3,CGGCCTTTGT,1.08
4,CGGCGAACGG,1
5,CGGCGAGTCT,1.01
6,CGGCGATCTG,1.01
7,CGGCGCACTG,1.14
8,CGGCGCCAGA,0.976
9,CGGCGGACGG,1.01
10,CGGCGGCGGC,0.995
11,CGGCGGCTTG,1.01
12,CGGCGGGTC,0.982
13,CGGCGTAGT,0.957
14,CGGCGTCAAT,2.47
15,CGGCTCACTC,1.13
16,CGGCTCGCAC,1.66
17,CGGCTGATAA,1.02
18,CGGCTGCAAG,1.08
19,CGGCTGCGAC,1.28
20,CGGCTGGCGT,1.02
21,CGGCTGTCTG,0.966
22,CGGCTTCTTA,0.972
23,CGGCTTGATG,1.02
24,CGGCTTGCCC,1.02
25,CGGGAACCGA,0.983
26,CGGGAAGAAC,0.956

row,Sequence,switch fluorescence ratio
1,CGGGACACTG,0.966
2,CGGGACATTG,0.99
3,CGGGACCGAG,1.01
4,CGGGACTGTA,1.04
5,CGGGAGAAGG,1.09
6,CGGGAGGACC,1.01
7,CGGGCCAGAA,1.38
8,CGGGCCCCTG,1.02
9,CGGGCCTCGC,1.01
10,CGGGCGGAGC,0.962
11,CGGGCTATTT,1
12,CGGGCTGATC,0.984
13,CGGGGAAGTA,0.967
14,CGGGGACAGT,1.03
15,CGGGGACTAA,1.07
16,CGGGGAGGTT,0.979
17,CGGGGCAACA,1
18,CGGGGCCGG,0.947
19,CGGGGCCGTG,0.962
20,CGGGGCGATA,1.08
21,CGGGGCGGGT,1.05
22,CGGGGGAATA,1.02
23,CGGGGGAATT,1.04
